Results published in PubChem BioAssay AID686978 (National Center for Advancing Translational Sciences (NCATS), 2013).
In all, about 420,000 compounds went through this assay and about 64,000 (15%) were called active. Inconclusive results, whose numbers are uncertain, are shown with a selection of clear calls. The call rests on the fitted dose curve; in most records, active means well fitted inhibition curve with a large enough effect; inconclusive means small, poorly fitted or top-dose-only effect; inactive means flat fitted curve, though single readings scatter. No potency is given beside an inconclusive call; the fits are too rough.

experiment: qHTS for Inhibitors of human tyrosyl-DNA phosphodiesterase 1 (TDP1): qHTS in cells in absence of CPT; settings: DT40 Tdp1-/- hTDP1 cells, no CPT, ATP luminescence, 48 h; activity change, negative = growth inhibition: at 46.2 µM (top of the series) unless noted; further: nearly all actives have a fitted effect of over 55% in size
Procedure, shortened: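 Growth kinetics read by CellTiter-Glo luminescence after ≥48 hr at 37 °C. Cells: DT40 Tdp1-/- stably carrying human TDP1, 400 per well, compound exposure in the absence of CPT (DMSO vehicle).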
On the % scale 0 is the no-effect control and ±100 the full control effect; potency means the concentration at half of the fitted maximal effect; tags describe the fitted curve by direction and shape.

Row | Compound | Potency | activity change, negative = growth inhibition
1 | CCCCCCCC(=O)C(C)C(=O)N(C)[C@H](Cc1ccc(OC)cc1)C(=O)N(C)[C@H](C(N)=O)C(C)C (stereo not given in full) | active: 23.1 µM | 
2 | Cc1ccc(C(=O)N2CCN(c3ccccc3O)CC2)cc1S(=O)(=O)N1CCCCC1 | inconclusive [inhibitor, single point] | 
3 | COc1cc2c(cc1NC(=O)c1cc(-c3ccncc3)nc3ccc(C)cc13)oc1ccccc12 | inconclusive [inhibitor, single point] | 
4 | COc1cc(/C=C2/N=C(c3ccccc3F)OC2=O)cc(Cl)c1OS(C)(=O)=O | inconclusive [inhibitor, partial curve] | 
5 | COc1cc2c(cc1OC)CN(c1ccc([N+](=O)[O-])cc1Cl)CC2 | active: 11.6 µM | 
6 | CCn1c(SCC(=O)Nc2ccccc2)nnc1-c1cccs1 |  | inactive: -1.11%
7 | O=C(NCc1ccccc1)C1=C[C@@H](c2coc3ccccc3c2=O)C[C@@H](OCc2ccc(CO)cc2)O1 | active: 9.2 µM | 
8 | O=C(Cc1ccccc1)c1c[nH]c(C(=O)NCc2ccncc2)c1 |  | inactive: 20.5%
9 | CCSc1nc2c(sc3ccccc32)c(=O)n1C(C)C |  | inactive: -25.2%
10 | COc1ccc(OC)c(NC(=O)CN(c2ccccc2OC)S(=O)(=O)c2ccc(C)cc2)c1 | active: 25.9 µM | 
11 | O=C1/C(=C/c2ccccn2)SC(=S)N1NS(=O)(=O)c1ccccc1 | inconclusive [inhibitor, single point] | 
12 | Cc1ccc(NC(=O)CSc2ccccn2)cc1S(=O)(=O)N1CCOCC1 |  | inactive: -13.5%
13 | CCC1=Nc2ccc(Br)cc2C(c2ccccc2)N1CC(=O)OC (stereo not given) | inconclusive [inhibitor, single point] | 
14 | Cc1cccc(CSc2nc3c(c(=O)n2C)SCC3)c1 | active: 14.6 µM | 
15 | COC(c1ccccc1)c1nnc(CCC(=O)N(C)CCc2ccccc2)o1 (stereo not given) |  | inconclusive: -33.5% [inhibitor]
16 | C/C(=N\NC(=O)c1cccc(N/N=C(\C)c2ccccc2)c1)c1ccccc1 | inconclusive [inhibitor, single point] | 
17 | COc1ccc(C(=O)N/N=C/c2c[nH]c3ccccc23)cc1 |  | inactive: 2.01%
18 | COc1ccc(C(C(=O)Nc2ccc(F)cc2)N2CCN(c3cccc(C(F)(F)F)n3)CC2)cc1 (stereo not given) | inconclusive [inhibitor, single point] | 
19 | N=C1C(=O)OCC1c1ccccc1NC(=O)c1ccc(F)cc1 (stereo not given) | inconclusive [inhibitor, full curve, poor fit] | 
20 | CC(=O)OCCN1C(=O)c2ccc(-c3nc4ccccc4c(=O)o3)cc2C1=O | inconclusive [inhibitor, partial curve, poor fit] | 
21 | O=C(c1ccc(CSc2ccc(Cl)cc2)cc1)N1CCCC1 | inconclusive [inhibitor, single point] | 
22 | O=C(Cn1cnc2ccccc21)N1CCc2ccccc21 | inconclusive [inhibitor, single point] | 
23 | Cc1cc(C)c2cc(CN(CCCN(C)C)C(=S)NCc3ccccc3)c(=O)[nH]c2c1 | inconclusive [inhibitor, partial curve] | 
24 | CC(=O)Nc1ccc(NC(=O)c2c(-c3ccccc3)noc2C)cc1 |  | inactive: -25.8%

Row | Compound | Potency | activity change, negative = growth inhibition
25 | O=C(CSc1nc2ccccc2n1Cc1cccc(C(F)(F)F)c1)NCc1ccccc1 | inconclusive [inhibitor, single point] | 
26 | CCC(=O)n1nc(-c2cccnc2)nc1NCc1ccccc1 |  | inactive: -24%
27 | Cc1ccc(C(=O)N2CC=C(c3ccccc3)CC2)o1 | inconclusive [inhibitor, partial curve, poor fit] | 
28 | CSc1cccc(CN2CCCC(C(=O)Nc3cccc(-n4cccn4)c3)C2)c1 (stereo not given) | inconclusive [inhibitor, single point] | 
29 | Cc1ccc2c(c1)cc(CN(Cc1cccnc1)C(=O)c1ccccc1)c1nnnn12 |  | inactive: 0.324%
30 | CCN(c1ccccc1)S(=O)(=O)c1cc(OC)ccc1OC |  | inconclusive: -32.9% [inhibitor]
31 | CC1CCC(C(C)C)C(OC(=O)COC(=O)c2ccc(=O)[nH]c2)C1 (stereo not given) | inconclusive [inhibitor, single point] | 
32 | COc1ccc(CN2CCN(C(=O)CC(C)C)CC2)cc1Br | inconclusive [inhibitor, single point] | 
33 | COC(=O)CC1Oc2ccc(Cl)cc2-n2cc(-c3ccc(C)cc3)nc21 (stereo not given) | active: 6.51 µM | 
34 | O=C1CCC(=O)N1CNc1ccccn1 |  | inconclusive: -32.9% [inhibitor]
35 | CC(=O)c1c(O)c(C)c(-c2ccccc2)n(-c2ccccc2)c1=O | inconclusive [inhibitor, partial curve] | 
36 | COc1ccc(CN(C(=O)c2snc(C(N)=O)c2N)C(C)C(=O)NCc2ccc(F)cc2)cc1 (stereo not given) | inconclusive [inhibitor, partial curve] | 
37 | O=C(N/N=C1\CCCc2ccccc21)c1ccccc1[N+](=O)[O-] | inconclusive [inhibitor, partial curve] | 
38 | COc1ccc(N2CCN(C(=O)c3ccc(CS(=O)c4cccc(C)c4)o3)CC2)cc1 (stereo not given) | active: 16.4 µM | 
39 | COc1ccc(-c2ccc(CO)o2)cc1N | inconclusive [inhibitor, partial curve] | 
40 | O=C(CSc1cc(Cl)ccc1Cl)NC1CCCC1 | inconclusive [inhibitor, single point] | 
41 | COc1ccc(C(=O)NCC(=O)OCC(=O)c2cccc3ccccc23)cc1 |  | inactive: -4.13%
42 | COc1ccc2c(c1)c(=O)c(C(=O)c1ccc(Cl)cc1)cn2CC(=O)Nc1ccc(F)cc1 | inconclusive [inhibitor, full curve, poor fit] | 
43 | CC1CN(CCCCOc2cccc(Oc3ccccc3)c2)CC(C)O1 (stereo not given) | inconclusive [inhibitor, single point] | 
44 | O=C(CSc1nc2c([nH]c3ccccc32)c(=O)n1-c1ccc(F)cc1)Nc1ccc2c(c1)OCO2 | inconclusive [inhibitor, single point] | 
45 | COc1ccc(OC)c(NC(=O)C2CCCN2C(=O)C2CCC(C)CC2)c1 (stereo not given) | active: 13 µM | 
46 | Cc1ccc(S(=O)(=O)C(CNC(=O)C(=O)NCCc2ccc(F)cc2)c2cccs2)cc1 (stereo not given) | active: 16.4 µM | 
47 | COc1cc(NC(=O)CSc2ccc(-c3sc(C)nc3C)nn2)cc(OC)c1 | active: 18.4 µM | 
48 | COC(=O)c1ccc(NC(=O)CNC(=O)C2CCCCC2)cc1 |  | inactive: -5.27%

Row | Compound | Potency | activity change, negative = growth inhibition
49 | Cc1cnc(C(=O)N(CCCn2ccnc2)C2C(=O)Nc3ccccc3N=C2c2ccccc2)cn1 (stereo not given) | inconclusive [inhibitor, partial curve] | 
50 | O=C1Nc2ccc(Br)cc2/C1=C/C(=O)c1ccc2c(c1)OCO2 | active: 3.26 µM | 
51 | CC(=O)C1=CCC(c2ccccc2)N(S(C)(=O)=O)C1 (stereo not given) |  | inactive: 10.2%
52 | CCOC(=O)c1ccc(N/C=C/C(=O)c2ccco2)cc1 | inconclusive [inhibitor, partial curve] | 
53 | CCN1c2ccccc2-c2nc(SCC(=O)Nc3cc(C)c(Cl)cc3OC)ncc2S1(=O)=O | inconclusive [inhibitor, single point] | 
54 | Cc1cc(C)cc(NC(=O)[C@H](Cc2c[nH]c3ccccc23)NC(=O)[C@@H]2Cc3ccccc3CN2)c1 | inconclusive [inhibitor, single point] | 
55 | Cc1ccc(CN2CCN(Cc3ccc4c(c3)OCCO4)CC2CCO)cc1 (stereo not given) | inconclusive [inhibitor, single point] | 
56 | CC(C)CN1C(=O)/C(=C/c2ccco2)NC1=S | inconclusive [inhibitor, single point] | 
57 | COc1cc([N+](=O)[O-])ccc1N1C(=O)CC(Sc2nccc(C)n2)C1=O (stereo not given) | inconclusive [inhibitor, single point] | 
58 | COC(=O)c1c(-c2ccccc2)csc1N | inconclusive [inhibitor, single point] | 
59 | COc1ncnc2c1ncn2CCCN1CCN(Cc2ccc(C)cc2)CC1 |  | inactive: -8.13%
60 | O=C1C(=O)N(c2ccccn2)C(c2cccc(F)c2)/C1=C(/O)c1ccccc1 (stereo not given) |  | inactive: -2.51%
61 | COc1ccccc1C1NC(=O)NC(C)=C1C(=O)OCC1CCCCC1 (stereo not given) | inconclusive [inhibitor, single point] | 
62 | Cc1ccc(C)c(N2CCN(c3nc4ccccc4n4nnnc34)CC2)c1 | inconclusive [inhibitor, partial curve] | 
63 | COc1ccc(CCNC(=O)c2c3c(nc4ccccc24)C(=O)N(C2CCCCC2)C3)cc1OC | active: 23.1 µM | 
64 | Cc1ccc(S(=O)(=O)N2C[C@H]3[C@H]4C(=O)N(c5ccccc5)C(=O)[C@H]4C[C@H](OC(=O)Nc4cccs4)[C@@]3(O)C2)cc1 | inconclusive [inhibitor, partial curve] | 
65 | CCCN1Cc2cccc(C(=O)NC(CC(=O)OCC)c3ccc(OC(C)C)cc3)c2C1=O (stereo not given) | active: 20.6 µM | 
66 | CN(C)c1ccc2c(O)cc(=O)n(C)c2c1 | active: 16.4 µM | 
67 | COC(=O)C1=CN(Cc2ccccc2)C=C(C(=O)OC)C1c1cc(F)ccc1F | inconclusive [inhibitor, partial curve] | 
68 | O=C(NCc1ccccc1)N1CCN(c2ccc(Cl)c(Cl)c2)CC1 | active: 5.8 µM | 
69 | O=C(NCCc1c[nH]c2ccccc12)c1ccc(-n2cnnn2)cc1 | inconclusive [inhibitor, single point] | 
70 | COc1ccc(NC(=O)CC(=O)Nc2ccc(OC)cc2OC)c(OC)c1 |  | inactive: 12.5%
